Laboratory results taken from patent US20250297030A1 (SHANDONG SIMCERE BIOPHARMACEUTICAL, published 2025).

T1: Cyno MUC17 ECD3577-his (His-tagged cynomolgus monkey MUC17 protein extracellular domain fusion protein) (cynomolgus monkey)
T1 construct: also called monkey MUC17-his protein; monkey MUC17 ECD3577-His
T1 chain: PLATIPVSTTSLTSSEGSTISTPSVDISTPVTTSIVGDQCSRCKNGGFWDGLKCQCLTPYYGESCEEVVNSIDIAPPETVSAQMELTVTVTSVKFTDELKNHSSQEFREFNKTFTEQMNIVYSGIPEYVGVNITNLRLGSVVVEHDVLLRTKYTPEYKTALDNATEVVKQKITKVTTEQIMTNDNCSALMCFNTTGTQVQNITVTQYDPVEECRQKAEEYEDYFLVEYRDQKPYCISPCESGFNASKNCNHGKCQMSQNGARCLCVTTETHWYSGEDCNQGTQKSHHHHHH

T2: monkey MUC17 fragment on FlpinCHO-Cyno(3597-3964)-D2 cells (monkey)
T2 chain: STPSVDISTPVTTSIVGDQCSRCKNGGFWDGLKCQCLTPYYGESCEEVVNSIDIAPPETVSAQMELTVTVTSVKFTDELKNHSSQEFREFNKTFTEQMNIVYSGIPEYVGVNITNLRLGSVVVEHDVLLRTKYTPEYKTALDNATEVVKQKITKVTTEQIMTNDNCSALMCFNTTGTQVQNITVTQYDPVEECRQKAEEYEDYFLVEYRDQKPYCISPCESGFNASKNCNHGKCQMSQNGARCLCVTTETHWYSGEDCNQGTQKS


Legend:
[1] = target: T3, Human MUC17 ECD4131-his (His-tagged human MUC17 protein extracellular domain fusion protein) (human, UniProt Q685J3 part only); test: SPR (Biacore 8K), antibody captured on Protein A
T3 construct: a truncation of the extracellular domain; also called human MUC17-his protein; human MUC17-His
Protocol: The strength of antibody-antigen binding was assayed with a BIAcore 8K instrument using an Protein A capture method. First, Protein A was immobilized onto a CM4 chip (purchased from GE, BR-1005-34) using an amino coupling method. According to the instruction of the Amine Coupling Kit (purchased from GE, BR100633), NHS and EDC were mixed with HBS-EP+ pH 7.4 as a mobile phase to activate the chip for about 600 s; the Protein A was diluted to 50 µg/mL with 10 mM sodium acetate (pH 4.5) and injected for 600 s, and finally, the remaining activated sites were blocked with ethanolamine. Then, the affinity of the antibody for the antigen was assayed using a multi-cycle kinetic method; in each cycle, first, the antibody to be tested was captured using the Protein A chip, and then a single concentration of antigen protein was injected. The association and dissociation processes of the antibody with the antigen protein were recorded, and finally, the chip was regenerated using Glycine pH 1.5, wherein the mobile phase was HBS-EP+ (10 mM HEPES, 150 mM NaCl, 3 mM EDTA, 0.05% surfactant P20), the flow rate was […], the regeneration time was 30 s, and the assay temperature was 25° C. Finally, according to a 1:1 binding model, the data were analyzed, and the antibody-antigen binding kinetics parameters, including the association rate constant Ka, the dissociation rate constant Kd, the equilibrium dissociation constant KD, and the maximum binding signal Rmax, were fitted. The association rate (Ka), dissociation rate (Kd), and binding affinity (KD) of the recombinant antibodies Lab315-huFc, Lab316-huFc, Lab320-huFc, Lab331-huFc, and Lab332-huFc with the human MUC17 protein are shown in Table 5.
After the finally obtained various humanized antibodies were expressed and purified, the affinity of the humanized antibodies for the human MUC17 protein was assayed according to the method in Example 3.6.

[2] = target: T1, Cyno MUC17 ECD3577-his (His-tagged …); test: ELISA on coated monkey MUC17 ECD3577-His, OD450
Protocol: To assay the binding activity of the humanized antibodies with the monkey MUC17-his protein, the monkey MUC17-his protein was diluted with PBS to a final concentration of […] and subjected to ELISA assay and data analysis according to the method described in Example 3.3. The humanized antibodies SCR-7724, SCR-7782, SCR-7783, SCR-7784, and SCR-7785 have cross-binding activity with the monkey MUC17 protein, maintaining the binding ability of the recombinant antibody.

[3] = target: T3, Human MUC17 ECD4131-his (His-tagged …); test: ELISA on coated human MUC17 ECD4131-his, OD450
Protocol: A human MUC17-his protein was diluted with PBS to a final concentration of […] and then added to a 96-well ELISA plate at 50 µL/well. The plate was incubated at 4° C. overnight. The next day, the plate was washed 2 times with PBST, and a blocking buffer [PBS+2% (w/w) BSA] was added for blocking at room temperature for 2 h. The blocking buffer was discarded, and the recombinant antibody and positive and negative control antibody with a starting concentration of 100 nM serially diluted by 3 folds were added at 50 μL/well. After incubation at 37° C. for 1 h, the plate was washed 3 times with PBST. A horseradish peroxidase (HRP)-labeled secondary antibody (purchased from Merck, Cat. No. AP113P) was added for incubation at 37° C. for 1 h, and the plate was washed 5 times with PBST. A TMB substrate was added at 50 μL/well for incubation at room temperature for 10 min, and then a stop solution (1.0 M HCl) was added at 50 µL/well. The OD₄₅₀ nm values were read by an ELISA plate reader (Multimode Plate Reader, EnSight, purchased from Perkin Elmer).

[4] = target: human MUC17 on NUGC4 endogenous tumor cells (human, UniProt Q685J3); test: FACS on NUGC4 cells, MFI
Protocol: Then a complete medium was added to stop the digestion, and the cells were blown into a single cell suspension. After counting, the cells were centrifuged, and the cell pellet was resuspended to 2×10⁶ cells/mL in an FACS buffer (PBS+2% fetal bovine serum), and added to a 96-well FACS reaction plate at 100 µL/well. The plate was centrifuged, and the supernatant was discarded. An antibody sample to be tested (diluted in a 3-fold gradient from a starting concentration of 100 nM) was added at 50 µL/well and uniformly mixed with the cells, and the mixture was incubated at 4° C. for 1 h. […] The results were tested and analyzed by FACS (FACS Canto™, purchased from BD) after the plate was centrifuged and washed 3 times with a PBS buffer and resuspended with 100 μL of PBS. Data analysis was performed by software (FlowJo) to obtain the mean fluorescence intensity (MFI) of the cells. Then, analysis was performed by software (GraphPad Prism8), data were fitted, and EC50 values were calculated. As shown in FIGS. 3A-3B, the recombinant antibodies Lab315-huFc, Lab316-huFc, Lab320-huFc, Lab331-huFc, and Lab332-huFc are all capable of binding specifically to NUGC-4 cells.
The preparation of the assay cells and the antibodies to be tested and the assay were performed with reference to Example 3.4. The humanized antibodies all have a relatively good binding activity with endogenous cells NUGC4, maintaining the binding ability of the corresponding recombinant antibodies before humanization.

[5] = target: T2, monkey MUC17 fragment on …; test: FACS on FlpinCHO-Cyno(3597-3964)-D2 cells, MFI

| Kd [1] [nM] | koff [1] [s⁻¹] | kon [1] [M⁻¹ s⁻¹] | EC50 (read off the curve) [2] [nM] | EC50 (read off the curve) [3] [nM] | EC50 (read off the curve) [4] [nM] | EC50 (read off the curve) [5] [nM] | Binder |
| --- | --- | --- | --- | --- | --- | --- | --- |
| 0.073 | 2.69e-05 | 369000 | ~0.05 | ~0.08 |  |  | SCR-7784-001-H3-hFc (Fc fusion, VHH-huFc (C220S) order with human hinge and Fc; also called SCR-7784 humanized antibody) DVQLVESGGGVVQPGGSLRLSCAASGYTSNRYSMAWFRQAPGKEREVVAFIWTDGGRTYYADSVKGRFTISHDNSKNTLYLQMNSLRAEDTAVYYCAASSLLLQTINPRAWPYWGQGTMVTVSS[omitted - human IgG1 Fc with C220S (EU numbers)] |
| 0.1 | 3.93e-05 | 392000 | ~0.05 | ~0.08 |  |  | SCR-7784-001-H5-hFc (Fc fusion, VHH-huFc (C220S) order with human hinge and Fc; also called SCR-7784 humanized antibody) DVQLVESGGGVVQPGGSLRLSCAASGYTSNRYSMAWFRQAPGKEREVVAFIWTDGGRTYYADSVKGRLTISHDNAKNTLYLQMNSLRAEDTAVYYCAASSLLLQTINPRAWPYWGQGTMVTVSS[omitted - human IgG1 Fc with C220S (EU numbers)] |
| 0.104 | 3.24e-05 | 313000 | ~0.05 | ~0.08 |  |  | SCR-7784-001-H6-hFc (Fc fusion, VHH-huFc (C220S) order with human hinge and Fc; also called SCR-7784 humanized antibody) DVQLQASGGGVVQPGGSLRLSCAASGYTSNRYSMAWFRQAPGKEREVVAFIWTDGGRTYYADSVKGRFTISHDNSKNTLYLQMNSLRAEDTAVYYCAASSLLLQTINPRAWPYWGQGTMVTVSS[omitted - human IgG1 Fc with C220S (EU numbers)] |
| 0.0722 | 2.69e-05 | 372000 | ~0.05 | ~0.08 |  |  | SCR-7784-001-H4-hFc (Fc fusion, VHH-huFc (C220S) order with human hinge and Fc; also called SCR-7784 humanized antibody) DVQLVESGGGVVQPGGSLRLSCAASGYTSNRYSMAWFRQAPGKEREVVAFIWTDGGRTYYADSVKGRFTISHDNAKNTLYLQMNSLRAEDTAVYYCAASSLLLQTINPRAWPYWGQGTMVTVSS[omitted - human IgG1 Fc with C220S (EU numbers)] |
| 0.0831 | 3.05e-05 | 367000 | ~0.05 | ~0.08 |  |  | SCR-7784-001-H7-hFc (Fc fusion, VHH-huFc (C220S) order with human hinge and Fc; also called SCR-7784 humanized antibody) DVQLVESGGGVVQPGGSLRLSCAASGYTSNRYSMAWFRQAPGKEREVVAFIWTDGGRTYYADSVKGRFTISHDNSKNTLYLQMNSLRAEDTAMYYCAASSLLLQTINPRAWPYWGQGTQVTVSS[omitted - human IgG1 Fc with C220S (EU numbers)] |

Second part, the binder before the results:

| Binder | Kd [1] [nM] | koff [1] [s⁻¹] | kon [1] [M⁻¹ s⁻¹] | EC50 (read off the curve) [2] [nM] | EC50 (read off the curve) [3] [nM] | EC50 (read off the curve) [4] [nM] | EC50 (read off the curve) [5] [nM] |
| --- | --- | --- | --- | --- | --- | --- | --- |
| SCR-7784-001-H1-hFc (Fc fusion, VHH-huFc (C220S) order with human hinge and Fc; also called SCR-7784 humanized antibody) EVQLVESGGGVVQPGGSLRLSCAASGYTSNRYSMAWFRQAPGKEREVVAFIWTDGGRTYYADSVKGRFTISRDNSKNTLYLQMNSLRAEDTAVYYCAASSLLLQTINPRAWPYWGQGTMVTVSS[omitted - human IgG1 Fc with C220S (EU numbers)] | 0.0755 | 2.27e-05 | 301000 | ~0.05 | ~0.08 |  |  |
| SCR-7784-001-H2-hFc (Fc fusion, VHH-huFc (C220S) order with human hinge and Fc; also called SCR-7784 humanized antibody) EVQLVESGGGVVQPGGSLRLSCAASGYTSNRYSMAWFRQAPGKEREVVAFIWTDGGRTYYADSVKGRFTISHDNSKNTLYLQMNSLRAEDTAVYYCAASSLLLQTINPRAWPYWGQGTMVTVSS[omitted - human IgG1 Fc with C220S (EU numbers)] | 0.0753 | 2.77e-05 | 368000 | ~0.05 | ~0.08 |  |  |
| SCR-7724-001-H5-hFc (Fc fusion, VHH-huFc (C220S) order with human hinge and Fc; also called SCR-7724 humanized antibody) EVQLVESGGGLVQPGRSLRLSCAASGDITRRCMGWFRQAPGKEREGVAGISEDGITIYADSVKGRFTISKDNAKNSLYLQMNSLRAEDTALYSCAASILNRVGCRQLSYEYIYRGQGTMVTVSS[omitted - human IgG1 Fc with C220S (EU numbers)] | 0.306 | 4.02e-05 | 131000 |  |  | ~0.1 | ~2 |
| SCR-7724-001-H9-hFc (Fc fusion, VHH-huFc (C220S) order with human hinge and Fc; also called SCR-7724 humanized antibody) EVQLVESGGGLVQPGRSLRLSCAASGDITRRCMGWFRQAPGKEREGVAGISEDGITGYADSVKGRFTISRDNAKNSLYLQMNSLRAEDTALYSCAASILNRVGCRQLSYEYIYRGQGTMVTVSS[omitted - human IgG1 Fc with C220S (EU numbers)] | 6.1 | 0.000583 | 95600 |  |  | ~0.1 | ~2 |
| SCR-7724-001-H10-hFc (Fc fusion, VHH-huFc (C220S) order with human hinge and Fc; also called SCR-7724 humanized antibody) EVQLVESGGGLVQPGRSLRLSCAASGDITRRCMGWFRQAPGKEREGVAGISEDGITGYADSVKGRFTISKDNAKNSLYLQMNSLRAEDTALYSCAASILNRVGCRQLSYEYIYRGQGTMVTVSS[omitted - human IgG1 Fc with C220S (EU numbers)] | 0.815 | 8.58e-05 | 105000 |  |  | ~0.1 | ~2 |
